# Laboratory results: the supplement of paper PMC12217912
# The list shows a part of the results. Sequences were assembled here from the parent chain. Values near 0.05 are background.
# B1: TEV protease; numbered along this chain (parent)
# chain: MGESLFKGPRDYNPISSSICHLTNESDGHTTSLYGIGFGPFIITNKHLFRRNNGTLVVQSLHGVFKVKDTTTLQQHLVDGRDMIIIRMPKDFPPFPQKLKFREPQREERICLVTTNFQTKSMSSMVSDTSCTFPSGDGIFWKHWIQTKDGQCGSPLVSTRDGFIVGIHSASNFTNTNNYFTSVPKNFMELLTNQEAQQWVSGWRLNADSVLWGGHKVFMVKPEEPFQPVKEATQL
# Variants of: B1
# Assay: raw area under fraction-flipped curve 0-4 h after induction (AUC4h, not background-subtracted), DNA-recorder readout of cleavage of the substrate (dimensionless); higher = more cleavage of the substrate by the protease variant
# Details: temperature: 34 °C; time window: 0-4 h after rhamnose induction
# Protocol: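 In vivo DNA recorder in E. coli TOP10(DE3) ΔrhaA at 34 °C. Each TEVp single-site mutant (parent TEVp 0) is paired with a single-site variant of the 7-mer TEVs (canonical ENLYFQ|S). The substrate sits between flexible linkers in a Bxb1-sfGFP-TEVs-SsrA fusion, so cleavage stabilises Bxb1 and speeds flipping of a recombination array, read by NGS. The value is the raw area under the fraction-flipped curve over 0-4 h after rhamnose induction (AUC4h), with ≥20 reads per time point. It is not background-subtracted; inactive controls average about 0.047.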
# 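Also: Bxb1 expression induced with 0.2% (w/v) L-rhamnose at OD600 near 0.5, cultures sampled hourly, flipped fraction per protease–substrate barcode pair counted by paired-end Illumina sequencing.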
Variant,area with substrate EALYFQS,area with substrate EGLYFQS,area with substrate EILYFQS,area with substrate EKLYFQS,area with substrate ELLYFQS,area with substrate EMLYFQS,area with substrate EPLYFQS,area with substrate EQLYFQS,area with substrate ERLYFQS,area with substrate ESLYFQS,area with substrate ETLYFQS,area with substrate EVLYFQS,area with substrate EWLYFQS,area with substrate ECLYFQS,area with substrate EDLYFQS,area with substrate EELYFQS,area with substrate EFLYFQS,area with substrate EHLYFQS,area with substrate EYLYFQS
D128E,0.112,0.0916,0.0694,0.13,0.0803,0.16,0.114,0.224,0.0793,0.087,0.113,0.0855,0.0944,–,–,–,–,–,–
D128I,0.143,–,–,–,0.108,0.116,–,0.156,0.0908,0.117,0.143,–,–,0.128,0.124,0.145,0.108,–,–
D128N,0.162,–,0.103,0.159,0.118,0.12,–,0.145,0.134,0.135,0.143,0.0991,0.107,0.12,0.169,0.141,–,0.131,0.111
D128R,0.14,–,0.106,0.131,–,0.13,0.137,0.15,0.13,0.123,–,0.0982,0.121,0.0956,0.0984,0.138,–,–,–
P134H,0.0787,0.0672,0.0694,0.0588,–,0.0638,–,0.0809,0.0768,0.0856,0.0721,0.0656,0.0721,0.0839,0.106,0.0912,0.0895,0.0932,0.0883
G136H,0.112,0.103,0.103,0.104,–,–,0.147,0.124,0.125,0.106,–,0.111,0.0971,0.0899,0.136,–,0.117,–,–
G136L,0.128,0.1,–,0.0625,0.0933,0.113,0.112,–,0.108,0.105,0.109,0.0959,0.0956,0.097,0.135,0.121,0.114,0.124,0.106
G136Q,0.116,0.0966,0.0945,0.112,0.104,0.116,0.141,0.115,0.113,0.103,0.0931,0.083,0.109,0.0829,0.111,0.141,0.1,0.127,0.0961
G136R,0.115,–,0.0989,0.118,0.0928,0.141,0.104,0.0876,0.0989,0.0924,0.141,0.0733,–,0.125,–,0.0875,0.123,0.127,0.0901
G136T,0.116,0.0783,0.0781,0.126,0.0881,0.108,0.138,0.124,0.093,0.0878,–,0.0858,0.0944,0.111,0.122,0.128,0.0901,0.112,–
G136W,0.0844,0.0914,0.148,–,0.104,–,0.118,0.0915,0.0979,0.0907,–,0.0679,0.0801,–,0.129,0.101,–,–,–
